In the supplement of paper PMC3724861:
The other results are listed elsewhere or left out.

test system: T1, Caupolican (Caup) homeodomain DNA-binding domain; assay: PBM E-score (8-mer, recovered from the published 9-mer minima) (E-score (dimensionless, -0.5 to 0.5)); Drosophila protein; higher = stronger relative binding preference, active = 0.31 or more
T1 sequence: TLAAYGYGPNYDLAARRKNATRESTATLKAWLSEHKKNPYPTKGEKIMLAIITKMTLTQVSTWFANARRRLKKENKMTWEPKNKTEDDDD
Outline: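 Caup's homeodomain DNA-binding domain (residues 214-303) was produced by in vitro transcription and translation and applied at 100 nM to custom-designed protein binding microarrays. Each value is an enrichment score giving relative binding preference for a short DNA word; higher means stronger. Published 9-mer scores were the minimum of their two constituent 8-mer scores, and the 8-mer values were recovered from those minima. A cutoff of 0.31 marks candidate binding sequences.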

PBM E-score, ≥ 0.0265:
TCGCACCA

PBM E-score, inactive:
GCCTGCCA -0.158, AGGCTAAT 0.0206, CACGCTTA 0.0972, AATGCTGT 0.117, CCCGAAAA -0.0642, AGTGTGCC -0.111, CGGGGGTA -0.2, ACTGTCTG -0.0192, GTCAACAA 0.285, AGCCAGCC -0.205, CCAAAACC 0.0157, CCAGCGAA -0.0855, CAGGTGAA 0.133, CAGATCCA 0.0202, GCCGCCTA -0.223, AGTTATCG 0.0572, CGTGGGGC -0.31, CTGTGTAC 0.272, CTATCGAG -0.0187, CCGTACTC -0.128, GGTCACCA -0.166, GCCGTGAC 0.0192, GCATGCGA 0.0804, GGTTCTGA 0.0192, CGTTACGA 0.0114, ATGATTAG 0.167, ATAGGACG 0.0328, GGCTACCA -0.0789, AGCCACCT -0.138, GATTTCAA -0.00333, TGATAAAA 0.0449, AATCAAGA 0.097, TAAAAGTA 0.107, CCCCTCCC -0.234, GGAGATAC -0.087, CTTCCCGA -0.0231, CGTGACAA 0.217, GGGACGAA -0.0882, CAGGGCGA -0.0706, ATCTTGAG 0.0656, CATCTTGA 0.0495, ACTGACCG -0.149, CAATGATG 0.165, CCCGGTGA -0.165, ACGTAACC 0.0348, GGACATTA 0.213, GGATGGTA 0.108, AGCCCAAC -0.104, CGTCGCAG -0.131, ATCGACTC 0.0139, AGTCATCA -0.016, GGAACAGA 0.154, CTGCCTAA -0.024, ATTTATGG 0.124, CATGACCC 0.0525, CTCAACCC -0.2, GCCACCAC -0.199, CACTTGCC -0.021, CTCAGGTC -0.098, CGTTTTCC 0.0392, ATGACCCG -0.0641, GCATACGA 0.00412, CCGCAGAA -0.0611, AAGCGTGC -0.0578, TCTTTGCA 0.02, CTTCTAAC -0.035, AACTATAA 0.134, TAAGCCTA -0.0476, CTCTAACC -0.0687, CAGCTCCG -0.112, AATACTCG 0.138, CGTCTGTC 0.0202, CTACAAGA 0.263, CGCTTTCA -0.0255, CGCGCACG -0.139, ACTTCGCG -0.0742, AGCCTATG 0.0254, GTTCTCAA 0.12, CGACGCAC -0.0645, GATGGACC -0.00754, CGTAGCAG -0.105, GGACTTCA -0.116, GGTTCACA 0.0707, GAGTGCCC -0.168, ACTTCCCT -0.0978, CAGGCGTA 0.00152, GGCATACA 0.106, CCCAGAGC -0.237, ACAGTCAC 0.0665, TAAGTTGA 0.135, CACCCACC -0.0812, CCCCAGAA -0.159, ACCAATGG -0.0754, TAAGCGCA -0.0729, ATCCGCGA -0.0716, AAGGTATA 0.0576, AGTCGACA 0.243, CTTAACTC 0.0277, AATTGTCG 0.056, CGAACTTA -0.101, ATCGTCTA 0.0297, CGACGTGC -0.0819, AAGGAGTA -0.0149, CCTCGAAA 0.0004, ACCAGCAC 0.0439, CCAAGCCG -0.197, CGGCCAGC -0.233, AGAGCTCT -0.176, AGCCCGAG -0.187, GGCGATGA -0.156, CCCTGCTA -0.116, GCTATGCC -0.148, TCTATCAA 0.0734, AGAGAATG 0.00744, CTCACACC -0.114, CGTGTGGC -0.0635, AGTCATGG -0.0716, ACTACCAG 0.16, GCTCTTGA -0.0842, CGCCTATC -0.0134, ATGTCCTC 0.272, CATTGGTA 0.127, GGGTCGCA -0.19, ACCATGCG -0.0486, ATCGCCAA -0.0895, ATACATCG 0.273, AACGCATG 0.0871, CGCATCCG -0.134, AGATTTGC 0.0709, ATCCATTA 0.1, CACGACGC -0.0593, CATGGCGC -0.16, ACGGGGCG -0.21, CGCCCGCC -0.261, ACGACTAG 0.135, ATACAATC 0.126, AAACTCCA 0.00485, AAAACCGC -0.0256, AGTACAGC 0.167, ACTCCTCA -0.104, AGTGCAGA -0.0583, CCTCAGCG -0.174, CCAGTAGC -0.123, GATTGTTA 0.211, ATGAACTG 0.0588, AGTGGAAG -0.198, CCCGACTC -0.175, AAACCTTC -0.117, AACGAGCT 0.0667, CTGTATGA 0.0638, ACGTAGAG -0.0582, CGATCCGA -0.00075, CTGCGCAA -0.0685, CAAAACAC 0.145, CACCCTCC -0.204, GACAGGAA 0.209, CACCCTGA -0.0659, ACCATTCT -0.0332, GTGCGTTA -0.0593, TGATACAA 0.233, ACTCCCAC -0.0626, GATGGCCA -0.0559, CGATGTGC -0.0367, CAGTGTGA 0.123, GTCAACGA 0.118, CGACCTGC -0.145, ACCCCTAT -0.0378, AAGATGAA 0.0239, ATCAAGAA 0.133, AGTATCCA 0.0214, CAACCTCC -0.103, AGCTACTG -0.0037, TGATTACA 0.284, TAACGCCA -0.0503, GCGGCCAC -0.241, CTACACCC 0.104, CGGTCGCC -0.279, CGCACGGA -0.18, GAGATTAC 0.0643, ATCCCTCC -0.115, GACGAAGA -0.0415, CCCTCGCG -0.259, TAGCTTGA -0.0181, CTGAGGGC -0.252, ATAAATAT 0.172, ACCACACT 0.0151, TTACCCAA 0.0239, CGGTATCC -0.103, TGGAATAA 0.0297, ATAGGAGG -0.148, GCTCGCTA -0.00463, AGTGAGAA -0.0861, ATTGAAGA 0.0635, ATCCTCAC -0.0239, ACAGTCCT -0.0197, AAACCTCG -0.112, AGCGCGCG -0.06, AATTCACT 0.06, ACAACCGA 0.212, CGACCGTC -0.138, AGCTACCC -0.109, CAGACATG 0.28, ATTATGCC 0.041, ACCCGAAT 0.0206, CGCACTCC -0.186, AATTTTTC 0.0927, CTGATAAC 0.111

PBM E-score, ≥ 0.138:
AAGCTAAT

PBM E-score, ≥ 0.167:
ATAATTGA

PBM E-score, ≥ 0.094:
AACGCATT

PBM E-score, ≥ 0.187:
AAATAGTA

PBM E-score, ≥ 0.0126:
ACTTGGCA

PBM E-score, ≥ 0.23:
AGTACCAT

PBM E-score, ≥ 0.0169:
TAGTGCGA

PBM E-score, ≥ 0.0868:
AGGTCGTA

PBM E-score, ≥ 0.285:
ACCAACAT

PBM E-score, active:
CATGTACC 0.416, CATGTAGC 0.332, GACATGAA 0.318, ACTACAAG ≥ 0.378, AACAAGTT 0.33, TAACTACA 0.348, CGTGTAAC 0.321

PBM E-score, ≥ -0.0993:
ATGGCCCA

PBM E-score, ≥ 0.166:
AATAAAGT
